Data on 14 molecules can be found in article PMC12136788.

The other results are listed elsewhere or left out.

B1: 90701550_90703810_897_3pUTR_ENSMUSG00000027282_ENSMUST00000136872|mouse|control|control (ssRNA)
RNA: GGGAGUUCUACAGUCCGACGAUCCAUGCACCAGCAAUCUAUCCAAGAAGUGUAUAUUGGGGAAUAAGGAGGAGAUCCACCAGCAAGCCCACAGUUGUUGACGGCCAUAAGAUUAGAUACAAGCACAAAGGGAUAUGUCAACAUCAACAGAGGAUUGAGCAUCA
B2: chr17:5392700:5392701:+_ENSG00000167842_ENST00000573759|hu_mus|FALSE|FALSE (ssRNA)
RNA: GGGAGUUCUACAGUCCGACGAUCGCUCUGAAGUUUUCUGCAGCUCUGGACCAGGGAUGCCAAACUCUCCCUAAAGUUACUAGUUCCUUGAUAUCUGCCGAUGUUUUCAAGCUCAUCAAAGAAAGUCAAGGUCUCUCUGAGUUUCAACAGAGGAUUGAGCAUCA
B3: chr12:45383693:45383694:+_ENSMUSG00000036257_ENSMUST00000043082|mus_hu|motif|central (ssRNA)
RNA: GGGAGUUCUACAGUCCGACGAUCACAAGAAAUACAGUUGCUUGCUUCUCUGCUUCCCACAAACACUUCUUGCAUUACGGAGGAGGUAAAUAUAUAUAUCUACAGUCAGAUUAAUAGACAUAACUUAAAAAUCAUUUAUUUUCUCAACAGAGGAUUGAGCAUCA
B4: chr11:87793471:87793472:-_ENSMUSG00000020483_ENSMUST00000020775|mus_mus|mus_mus_mus_hu_False|1_8 (ssRNA)
RNA: GGGAGUUCUACAGUCCGACGAUCUGGACUUGAAAAUAAAAGAAUAAGCUGGAUCCCCCACCCCCCCACAUUGUCAACCCUACACGAGAGUUUUGAAGGCGACUCAUGAAAAUCAGCAGCUCAAACGAAUGACAACCCCCACCCCAACAGAGGAUUGAGCAUCA
B5: chr22:19452774:19452775:-_ENSG00000070010_ENST00000399523|hu_hu|hu_hu_hu_mus_False|28_78 (ssRNA)
RNA: GGGAGUUCUACAGUCCGACGAUCCUUCUCAUUGUAGUUGAUAGCAAUCACAUCUCCGGUGGUCAGACAGGCGAAGUUUCUCAAUGCAUUUUCUAAUACCGCUUUAGGGUUGGUGAUAUCCAGGAAGUCUGGGCUCUGAGGCUGCAACAGAGGAUUGAGCAUCA
B6: chr4:17845017:17845018:+_ENSG00000109805_ENST00000514176|hu_mus|hu_hu_hu_mus_False|88_108 (ssRNA)
RNA: GGGAGUUCUACAGUCCGACGAUCGCUUCCUAACUUAGUAUCUUCAUGAGAAAUUGGUGCAAGGUUAAGUUUACUUUUCUGUAGCGCAGCUGUUUUGGCUCGUCUGGGUAAUCUCAUCUUCAUUUCUGAUGGUGGUUCAUGAUCCAACAGAGGAUUGAGCAUCA
B7: chr17:45705486:45705487:-_ENSMUSG00000023944_ENSMUST00000024739|mus_mus|motif|central (ssRNA)
RNA: GGGAGUUCUACAGUCCGACGAUCGUUGGCUGUCCAGCCAUAGGUGCUUGUCACAAUGCAGCAGGGUGAAGACACAAGCCGGUUGGAGAUUGUCACCUUUUCAACCUUCUUGUCCAAGAUCUCCUUCAUGAGCUUGCAGAGAUUCAACAGAGGAUUGAGCAUCA
B8: chr9:14812383:14812384:-_ENSMUSG00000031934_ENSMUST00000164273|mus_mus|mus_mus_mus_hu_True|1_98 (ssRNA)
RNA: GGGAGUUCUACAGUCCGACGAUCAUAGCCCAGGUAGAUACAUGCCAACAGUAUAAUGAUGAGUGUCAGCAGGCGGCAGCUAAUGUACUUGAUGAUUAAAUUAUUAGAAUUUUUCUUUGUCUUCAAGUACUGCUCCACGAUUGGCAACAGAGGAUUGAGCAUCA
B9: chr8:95500983:95500984:-_ENSG00000164944_ENST00000437199|hu_hu|hu_hu_hu_mus_True|18_28 (ssRNA)
RNA: GGGAGUUCUACAGUCCGACGAUCAGAACACAUCUAUCGAGUAAAGGACCGUACAUGACGGCCUCUACCACUGCCUCCACUAACAAACUUUCCUCUCGAGCCUCCACCUGCCGCUAUUUGCACUAGCCAGGACGGUCCCAGGCCCAACAGAGGAUUGAGCAUCA
B10: chr4:54294246:54294247:+_ENSG00000145216_ENST00000306932|hu_hu|FALSE|FALSE (ssRNA)
RNA: GGGAGUUCUACAGUCCGACGAUCUGGAGGAGGUGGAAGGUGAGUGGGAGGAGCUCCUGGAGGGAAAAACGGAGGUGGUUUGCUAAAAUUGUUGUCUACUUCAGUAGCAGAUCUUUCAGAAAGGACCUGUAUGUUGCUGUUCUCCAACAGAGGAUUGAGCAUCA
B11: chr16:64763996:64763997:-_ENSMUSG00000059920_ENSMUST00000076991|mus_mus|motif|central (ssRNA)
RNA: GGGAGUUCUACAGUCCGACGAUCAGGCUUUUUAAGAAUUCAAAAAUUCAAUAUGAAAGAUAGCUUUUUAAAAAACCUUUCGGUAGCAGUAACACAAAUAGCCCAUGGAUUGUUUUUAAUCUUAUGCUUUUCUCAGGGCAUUUACAACAGAGGAUUGAGCAUCA
B12: 37450423_37450543_1856_CDS_ENSG00000115816_ENST00000234170|human|control|control (ssRNA)
RNA: GGGAGUUCUACAGUCCGACGAUCUAACCUCUUCACAAAAGCCUUCACCCGGCGCAACACAAUGUCAGCUUUCAGAGAUUUGUAGACAAGGUUAAGAAACAUAGCUUGCUUGGAACACGUCAUCAACCCUGGAUCCAACAUCUUCAACAGAGGAUUGAGCAUCA
B13: 151749061_151751266_965_CDS_ENSG00000182134_ENST00000458431|human|control|control (ssRNA)
RNA: GGGAGUUCUACAGUCCGACGAUCGUCAGGACUGGGGAUUUCAAACAUGGGCAUCUCUGGGAUGGCCUGGGCUUCAGACUUCUGAAAGCUGUCAUCACUAGGUUUCUCCCAGGAACCUUCCUUUGACACUACCACAGCCAUGUCCAACAGAGGAUUGAGCAUCA
B14: chr8:104447970:104447971:+_ENSG00000164934_ENST00000297579|hu_hu|hu_hu_hu_mus_False|18_108 (ssRNA)
RNA: GGGAGUUCUACAGUCCGACGAUCAUAUACCUCCCUGCUUCGGCUCUUGUCCACAGGAAAGAUUCUAAUAGACUUAUCAAAGCUGGCAGACACAAAUUCCUUCCCAGUGGGAGAGUAAUCCACAUCAAGUACUGCAGACACGUGCAACAGAGGAUUGAGCAUCA

This assay deals with T1, UNK ZnF1-3 (human, UniProt Q9C0B0 31-174).
T1 sequence: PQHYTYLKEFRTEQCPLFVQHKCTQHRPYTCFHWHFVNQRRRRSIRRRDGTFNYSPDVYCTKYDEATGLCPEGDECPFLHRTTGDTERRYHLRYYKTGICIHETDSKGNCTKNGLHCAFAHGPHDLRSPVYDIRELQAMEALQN
As to the kind of experiment: nsRBNS (natural sequence RNA bind-n-seq); RBNS binding buffer (assumed for nsRBNS): 25 mM Tris pH 7.5, 150 mM KCl, 3 mM MgCl2, 0.01% Triton X-100, 500 ug/ml BSA, 20 U/ml SUPERase-In, 4 C; UNK is unkempt and MSI1 is Musashi-1; names of the RNAs are library labels; protein concentration not given here; high values mean tight binding.
For the molecule B1, the binding signal turned out to be 1.39 enrichment R. The result for B2 reads 0.71 enrichment R.

In the case of B3, the binding signal was determined as 1.05 enrichment R. B4 yielded a binding signal of 2.43 enrichment R.

In turn, B5 had a binding signal of 0.925 enrichment R. The result for B6 reads 0.517 enrichment R.

In turn, B7 returned a binding signal of 0.915 enrichment R. For the molecule B8, the binding signal is 1.36 enrichment R. The result for B9 reads 1.13 enrichment R. The value for B10 was 1.23 enrichment R; that for B11 was 0.832 enrichment R. The value for B12 was 1.05 enrichment R.

Molecule B13 yielded a binding signal of 0.716 enrichment R.

B14 had a binding signal of 0.943 enrichment R.
